Data on 54 molecules can be found in PubChem BioAssay AID1346428 (National Center for Advancing Translational Sciences (NCATS), 2018).

The structures appear in SMILES notation. Values joined by “and” are separate entries in the source; they are usually repeats but may differ in a detail not shown here. Identical values can stand only once. Among all 48,000 compounds or so, about 1,200 (2.5%) were called active. Not shown: some 2% with an inconclusive outcome.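 Rule for the calls: active = activation of at least 60% and not above a set upper limit (about 1 call in 100 departs from these limits); inconclusive = activation of 40% to 60%, or above that upper limit; inactive = activation under 40%.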 The list shows a part of the results. Some structures have more than one record in an assay (separate samples or runs), and their calls can disagree.

UniProt O75388, sequence (O75388 whole entry, looked up): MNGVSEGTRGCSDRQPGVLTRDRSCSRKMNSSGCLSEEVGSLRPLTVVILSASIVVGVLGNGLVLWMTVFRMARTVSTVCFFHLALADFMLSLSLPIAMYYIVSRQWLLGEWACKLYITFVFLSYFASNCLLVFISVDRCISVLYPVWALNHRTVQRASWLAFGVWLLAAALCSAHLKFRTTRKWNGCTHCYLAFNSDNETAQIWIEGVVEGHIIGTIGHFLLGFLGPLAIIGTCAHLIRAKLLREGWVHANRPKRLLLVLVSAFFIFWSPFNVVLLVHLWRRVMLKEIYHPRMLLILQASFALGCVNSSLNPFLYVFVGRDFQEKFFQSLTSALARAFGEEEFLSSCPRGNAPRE

The target of the assay is Probable G-protein coupled receptor 32 (Homo sapiens) (UniProt O75388). Nature of the assay: qHTS for Agonists of Human Resolvin D1 Receptor DRV1. The following applies: CHO-K1 GPR32 beta-arrestin PathHunter luminescence, 90 min; at 76.9 µM; stronger effect = higher value; zero percent set by DMSO-only wells. The source says:
Endogenous resolution of inflammation is known to be transduced through various GPCRs and their natural mediators of lipid nature. Resolvin D1 (RvD1) is one of the active players in resolution of acute inflammation through regulation of anti-inflammatory pathways; it is known to enhance phagocytosis of human macrophages, limits neutrophils infiltration, etc. […] The search for GPR32-activating small molecules with anti-inflammatory effects similar to its natural omega-3 derivative ligand in order to use them as research tools for further studies of inflammation and its resolution was the goal of this screening project. For primary screening assay, we used CHO-K1 GPR32 beta-arrestin cell line (DiscoveRx, #93-0321C2A) and the PathHunter(R) beta-Arrestin Assay (DiscoveRx) which measures recruitment of beta-arrestin to the GPR32 and generates chemiluminescent signal. These engineered cells stably transfected with GPR32 co-express GPR32-fused small 42-amino acid fragment of beta-Gal called ProLinktrade mark, and […] -tagged beta-Arrestin fusion protein. When GPR32 is activated by a ligand, it stimulates binding of beta -Arrestin to ProLink-tagged GPR32, and two parts of beta-Gal complement forming a functional enzyme. Upon substrate (PathHunter(R) Detection reagent) addition, beta-Gal hydrolyzes it and generates a chemiluminescent signal.
The cells were thawed and plated in thawing media containing F-12 HAM (Invitrogen, #11765-054), 10% FBS (Invitrogen, #10082), 1x Glutamine, and 1x Pen/Strep onto the 175-mm flask for 24 hours. Then, thawing media was replaced with Growth media which contains 800microg/mL Geneticin (Invitrogen, #10131) and 300microg/mL Hygromycin B (Invitrogen, #10687) in addition to described above. For the assay, the cells were harvested at ~80% confluent stage with Cell Dissociation buffer (Gibco, #13151), and seeded at 2,500 cells/ 3microL/well in assay media (PathHunter(R) Cell Plating Reagent, DiscoverX, #93-0563R1B) using MultiDrop Combi dispenser (Thermo Scientific, Logan, UT) onto white solid bottom tissue culture-treated 1536-well plates (Greiner # 789173-F) and allowed to attach overnight at 37 degrees C, 95% humidity, 5% CO2, . Next, 23nL/well of compound solutions in DMSO were added with a Pin Tool (Kalypsis, San Diego, CA) to the assay plates. As the basal control (EC0), 23 nL/well of DMSO was used on each plate. The cells were incubated in the presence of compounds or DMSO for 90 minutes at 37 degrees C, 5% CO2. Subsequently, 1.5microL/well of PathHunter(R) Detection Reagent prepared per the manufacturer's instructions was added to the assay plates with BioRAPTR FRDtrade mark dispenser (Beckman Coulter, San Francisco, CA) and incubated for 1 hour at ambient temperature prior to the measurement of the luminescent signal on ViewLux(R) uHTS Microplate Imager (Perkin Elmer, Waltham, MA).
On the technique in general: In qHTS, concentration-response curves come from the screen itself.
With `O=C(CC1(O)C(=O)N(CCc2ccccc2)c2ccc(Br)cc21)c1ccccc1` (centres undefined), the activation was active: 60.3%.
The result for `CCOc1ccccc1CNC(=O)C1CCN(c2nnc(C)c3c(C)n(-c4ccc(C)cc4)nc23)CC1` reads inactive: -8.06%; that for `Cc1cccc(OCC(=O)Nc2ccc(OCc3cc(=O)n4cc(C)ccc4n3)cc2)c1`, inactive: 4.51%; that for `Cc1c(Cl)cccc1NC(=O)C(C)n1nc(C)c2c(C)n(-c3ccccc3)nc2c1=O` (centres undefined), inactive: -10.5%.
The result for `CC(=O)Nc1ccc(Nc2nc3ccc(Cl)cc3n3cnnc23)cc1` reads inactive: 4.07%.
Next, `COc1ccc(N(Cc2nnc3n2CCCCC3)C(=O)Nc2ccc(Cl)cc2)cc1Cl`: inactive: 30.7%.
Turning to `CCC1CCCCN1C(=O)CSc1n[nH]c(-c2ccccc2)n1` (centres undefined), the activation is inactive: -0.325%.
The result for `Cc1cccc(NC(=O)CSc2cn(CC(=O)N3CCC(C)CC3)c3ccccc23)c1C` reads inactive: -16.5%; that for `Fc1ccccc1-n1ncc2c1ncn1nc(COc3ccc(Cl)cc3)nc21`, inactive: -8.19%.
Take `COc1ccccc1CNC(=O)c1cc(S(=O)(=O)N2CCCCCC2)cn1C`: the activation is inactive: -3.52%.
For `O=C1CC(c2nnc(Cc3ccc(F)cc3)o2)CN1c1ccccc1` (centres undefined), the activation was inactive: -6.01%.
The result for `Cc1cccc(N2CCN(S(=O)(=O)c3nnc(NC(=O)c4ccc(Cl)cc4)s3)CC2)c1` reads inactive: 3.52%.
Consider `COc1ccc(OC)c(NC(=O)c2ccc3nc(C(C)C)oc3c2)c1`, for which the activation is inactive: -18.6%.
Next, `CC(=O)c1cccc(NC(=O)Cn2c(-c3cncs3)nc3ccccc32)c1`: inactive: -11.6%; `Cc1ccccc1CN1CCC(CNC(=O)c2cc3ccc4cccnc4c3[nH]2)CC1`: inactive: -5.32%.
Next, `COc1ccccc1NC(=O)c1sc2nc(C)c(C(=O)Nc3ccc(Cl)cc3)c(-c3ccc(Br)cc3)c2c1N`: inactive: 16.3%; `CC(C)(C)C(=O)NC1CC(=O)N(c2ccc3c(c2)OCCO3)C1` (centres undefined): inactive: 2.7%; `COc1ccccc1N1CCN(C(=O)c2cc3c(s2)-c2ccccc2OC3)CC1`: inactive: -12.3%.
The result for `CCc1cccc(NC(=O)c2cc(S(=O)(=O)N3CCCCCC3)cn2C)c1` reads inactive: -9.76%; that for `CCOC(=O)Cc1c(C)nc2c(-c3ccc(OC)c(OC)c3)c(C)nn2c1C`, inactive: -14.5%; that for `O=C(CCC(=O)N1CC2CCCN2c2ccccc21)NCc1ccccc1F` (centres undefined), inactive: -28.5%.
Regarding `COc1ccc(-c2cc(C(=O)Nc3ccc(C#N)cc3)no2)cc1`, the activation was inactive: 5.32%.
Next, `Cc1cccc(C(=O)Nc2nnc(S(=O)(=O)N3CCC(C)CC3)s2)c1`: active: 68.5%.
The result for `CCOC(=O)CC(NC(=O)c1cc2cc(OC)ccc2oc1=O)c1ccc(OC)cc1` (centres undefined) reads inactive: 6.64%; that for `Cc1cccc(OCC(=O)OCc2cc(=O)n3nc(C4CC4)sc3n2)c1`, inactive: 21.6%.
Next, `O=C(NCc1ccccc1)c1cccc(Nc2nc3ccccc3n3nnnc23)c1`: inactive: 25.5%; `CCCC1(C)C(C#N)(C#N)C1(C#N)C#N`: inactive: -28.1%.
As for `CCOc1ccc(CNC(=O)CCS(=O)(=O)c2cc3c4c(c2)CCN4C(=O)CC3)cc1`, the activation was inactive: -8.22%.
Next, `O=C(C1CCN(S(=O)(=O)c2cccc3nonc23)CC1)N1CCN(c2ccc(F)cc2)CC1`: inactive: 4.35%; `CC1CCN(C(=O)CN2CCSc3ccc(S(=O)(=O)N(C)C)cc32)CC1`: inactive: -5.25%.
On to `CCOC(=O)c1c(C)oc2ncnc(Nc3ccc(CC)cc3)c12`, for which the activation was inactive: 5.36%.
With `CCC(=O)N1CCc2cc(S(=O)(=O)NCCC(=O)NC(C)c3ccccc3)ccc21` (centres undefined), the activation was inactive: 7.49%.
The result for `COc1ccc(/C=C/c2nc(-c3ccccc3O)n(-c3ccccc3)n2)cc1OC` reads inactive: -12.2%; that for `CN(C)CCCN1c2ccccc2Sc2ccc(Cl)cc21`, active: 63% and inactive: -19.2%.
Next, `CC(=O)c1ccc(NC(=O)C(Cc2ccccc2)NS(=O)(=O)c2ccc3c(c2)CCC(=O)N3)cc1` (centres undefined): inactive: 10.3%; `CCCCOc1ccc(NC(=O)CSc2ccc(C(=O)O)cn2)cc1`: inactive: 0.0116%; `COc1ccc(NC(=O)CCc2nc3cccnc3n2Cc2cccs2)c(OC)c1`: inactive: -11.2%.
For `CCOC(=O)c1ccc(NC(=O)Nc2cccc(OCc3cc(=O)n4ccc(C)cc4n3)c2)cc1`, the activation is inactive: -14.1%.
Turning to `Cc1cc(N2CCN(c3ccccc3F)CC2)n2cnnc2n1`, the activation is inactive: -6.22%.
Regarding `CCCSc1ncc(Cl)c(C(=O)Nc2ccc(OC)cc2OC)n1`, the activation is inactive: -11.4%.
The result for `O=C(NCc1ccc(F)cc1)c1ccc2c(c1)N(Cc1ccc(F)cc1Cl)C(=O)CS2` reads inactive: 48.1%.
Next, `CC(C)CCSc1nc2c(c(=O)n(C)c(=O)n2C)n1Cc1ccccc1Cl`: inactive: -8.58%.
The result for `COc1cccc(CNC(=O)CCn2ccc3cc(S(=O)(=O)N4CCCC4)ccc32)c1` reads inactive: -4.61%; that for `Cc1ccc(CN2C(=O)SC(Nc3ccccc3)C2=O)cc1` (centres undefined), inactive: -86%; that for `O=C(NCCn1cc(SCc2ccc(C(F)(F)F)cc2)c2ccccc21)c1ccccc1F`, inactive: -8.06%.
For the molecule `CCn1cnc2c(=O)oc3ccc(S(=O)(=O)N4CCN(c5cc(C)ccc5C)CC4)cc3c21`, the activation was inactive: 11.8%.
The result for `COc1ccc(NC(=O)Nc2nnc(SCC(=O)Nc3cccc(C)c3C)s2)cc1` reads inactive: -7.96%; that for `Cc1ccc(C2C=C(c3ccc(Cl)cc3)Nc3nc(NC(=O)CCC(=O)O)nn32)cc1` (centres undefined), inactive: 33.6%; that for `CCOc1ccc(NC(=O)CCn2c(-c3ccc(F)cc3)cc(C(C)=O)c2C)cc1`, inactive: -20.9%.
The result for `COc1ccc(C2=C(C)C(=O)N(Cc3ccc(C(=O)NCc4ccccc4C)cc3)S2(=O)=O)cc1` reads inactive: -5.78%.
`O=S(=O)(NCCc1ccc(Cl)cc1)c1ccc(N2CCCCS2(=O)=O)cc1`: the activation is inactive: 15%.
Next, `COc1ccccc1OCCCn1c(-c2ccc(Cl)cc2)nc2ccccc2c1=O`: inactive: -12.7%; `O=C(CSc1nnc(-c2ccccc2)c(-c2ccccc2)n1)Nc1ccccc1Cl`: inactive: -21.1%.
Next, `CCCOc1ccc(C(=O)Nc2cc3nn(-c4ccc(CC)cc4)nc3cc2C)cc1`: inactive: -0.127%.
